# Data from the supplement of paper PMC8728848.
# The list shows a part of the results.
# B1: Blon2468mut (Bifidobacterium longum) (protein)
# chain: MTFIKQMMPRYVASMTAGIVAAAMAATCAFAPVANADAVSPTQETIQSTGRHFMVYYRAWRDVTMKGVNTDLPDDNWISMYDIPYGVDVVNIFSYVPSGQEEQAQPFYDKLKSDYAPYLHSRGIKLVRGIDYTGVAVNGFRTFMKEQNKTESEATEADYDAYAKQVIDKYMISVGLDGLDIDMQAHPNDADVKISDNVIRALSKHIGPKSAKPDTTMFLYDTNGSYLNPFKNVAECFDYVAYQQYGSSSDRTARAAADYQPYIGNEFVPGLTFPEEGDMNNRWYDATEPYEESHFYQVASYVREHNLGGMFVYALDRDGRNYDEDLRRIVPSNLLWTKTAIAESEGMALDTAKTAANHYLDRMSLRQVIDDNAASADKARDMVGKAANLYETNKAVLGGDYGEGFSNTYDPTLEAGLLGIDISVLQQQIDKSSEIIGADTAESDAKTALRMARDAAIDGLTGKIYTADQVSAWSQALKAALDATVPVPTPDSTDQNGNRDKVTNHKVQGQPKQLSATGISTDIIVAVGVTLAIAGVALSLSRKLS
# Experiments:
# Assay in all cases: glycan array binding signal (z-score within array); higher = stronger binding
# Conditions in all cases: glycan notation: IUPAC condensed, linker removed
# [1] = target: Gal(a1-3)Gal(b1-4)GlcNAc(b1-2)Man(a1-3)[Gal(a1-3)Gal(b1-4)GlcNAc(b1-2)Man(a1-6)]Man(b1-4)GlcNAc(b1-4)GlcNAc
# Outline: (§1)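 The binding signal is a Z-score computed within each array and averaged over linkers. Arrays of the same protein sequence at different concentrations or buffers were also averaged together. Data originate from 3228 arrays in the Consortium for Functional Glycomics database, kept only where the protein sequence was available.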
# [2] = target: Gal(a1-3)Gal(b1-4)GlcNAc(b1-3)GalNAc
# Outline: as §1
# [3] = target: Gal(a1-3)Gal(b1-4)GlcNAc(b1-6)GalNAc
# Outline: as §1
# [4] = target: Gal(a1-3)Gal(b1-4)[Fuc(a1-3)]GlcNAc
# Outline: as §1
# [5] = target: Gal(a1-3)Gal(b1-4)[Fuc(a1-3)]GlcNAc(b1-2)Man(a1-3)[Gal(a1-3)Gal(b1-4)[Fuc(a1-3)]GlcNAc(b1-2)Man(a1-6)]Man(b1-4)GlcNAc(b1-4)GlcNAc
# Outline: as §1
# Gal(a1-3)GalNAc = target: Gal(a1-3)GalNAc
# Outline: as §1
# [6] = target: Gal(a1-3)[Gal(a1-4)]Gal(b1-4)GlcNAc
# Outline: as §1
# [7] = target: Gal(a1-4)Gal(b1-3)GlcNAc(b1-2)Man(a1-3)[Gal(a1-4)Gal(b1-3)GlcNAc(b1-2)Man(a1-6)]Man(b1-4)GlcNAc(b1-4)GlcNAc
# Outline: as §1
# Gal(a1-4)Gal(b1-4)Glc = target: Gal(a1-4)Gal(b1-4)Glc
# Outline: as §1
# Gal(a1-4)Gal(b1-4)GlcNAc = target: Gal(a1-4)Gal(b1-4)GlcNAc
# Outline: as §1
# [8] = target: Gal(a1-4)Gal(b1-4)GlcNAc(b1-2)Man(a1-3)[Gal(a1-4)Gal(b1-4)GlcNAc(b1-2)Man(a1-6)]Man(b1-4)GlcNAc(b1-4)GlcNAc
# Outline: as §1
# [9] = target: Gal(a1-4)Gal(b1-4)GlcNAc(b1-3)Gal(b1-4)Glc
# Outline: as §1
# Gal(a1-4)GlcNAc = target: Gal(a1-4)GlcNAc
# Outline: as §1
# Gal(a1-6)Glc = target: Gal(a1-6)Glc
# Outline: as §1
# Gal(b1-2)Gal = target: Gal(b1-2)Gal
# Outline: as §1
# Gal(b1-3)Gal = target: Gal(b1-3)Gal
# Outline: as §1
# Gal(b1-3)Gal(b1-4)GlcNAc = target: Gal(b1-3)Gal(b1-4)GlcNAc
# Outline: as §1
# Gal(b1-3)GalNAc = target: Gal(b1-3)GalNAc
# Outline: as §1
# [10] = target: Gal(b1-3)GalNAc(a1-3)[Fuc(a1-2)]Gal(b1-4)Glc
# Outline: as §1
# [11] = target: Gal(b1-3)GalNAc(a1-3)[Fuc(a1-2)]Gal(b1-4)GlcNAc
# Outline: as §1
# Gal(b1-3)GalNAc(b1-3)Gal = target: Gal(b1-3)GalNAc(b1-3)Gal
# Outline: as §1
# [12] = target: Gal(b1-3)GalNAc(b1-3)Gal(a1-4)Gal(b1-4)Glc
# Outline: as §1
# [13] = target: Gal(b1-3)GalNAc(b1-4)Gal(b1-4)Glc
# Outline: as §1
# [14] = target: Gal(b1-3)GalNAc(b1-4)[Neu5Ac(a2-3)]Gal(b1-4)Glc
# Outline: as §1
# Gal(b1-3)GlcNAc = target: Gal(b1-3)GlcNAc
# Outline: as §1
# [15] = target: Gal(b1-3)GlcNAc(a1-3)Gal(b1-4)GlcNAc
# Outline: as §1
# [16] = target: Gal(b1-3)GlcNAc(a1-6)Gal(b1-4)GlcNAc
# Outline: as §1
# Gal(b1-3)GlcNAc(b1-2)Man = target: Gal(b1-3)GlcNAc(b1-2)Man
# Outline: as §1
# [17] = target: Gal(b1-3)GlcNAc(b1-2)Man(a1-3)[Gal(b1-3)GlcNAc(b1-2)Man(a1-6)]Man(b1-4)GlcNAc(b1-4)GlcNAc
# Outline: as §1
# [18] = target: Gal(b1-3)GlcNAc(b1-2)Man(a1-3)[Gal(b1-3)GlcNAc(b1-2)Man(a1-6)]Man(b1-4)GlcNAc(b1-4)[Fuc(a1-6)]GlcNAc
# Outline: as §1
binder,measurement,setting,value
B1,glycan array binding signal (z-score),[1],-0.069
same,glycan array binding signal (z-score),[2],-0.074
same,glycan array binding signal (z-score),[3],-0.071
same,glycan array binding signal (z-score),[4],-0.083
same,glycan array binding signal (z-score),[5],-0.05
same,glycan array binding signal (z-score),Gal(a1-3)GalNAc,-0.031
same,glycan array binding signal (z-score),[6],0.009
same,glycan array binding signal (z-score),[7],-0.094
same,glycan array binding signal (z-score),Gal(a1-4)Gal(b1-4)Glc,-0.045
same,glycan array binding signal (z-score),Gal(a1-4)Gal(b1-4)GlcNAc,-0.04
same,glycan array binding signal (z-score),[8],-0.062
same,glycan array binding signal (z-score),[9],-0.052
same,glycan array binding signal (z-score),Gal(a1-4)GlcNAc,-0.05
same,glycan array binding signal (z-score),Gal(a1-6)Glc,-0.067
same,glycan array binding signal (z-score),Gal(b1-2)Gal,-0.062
same,glycan array binding signal (z-score),Gal(b1-3)Gal,-0.068
same,glycan array binding signal (z-score),Gal(b1-3)Gal(b1-4)GlcNAc,-0.047
same,glycan array binding signal (z-score),Gal(b1-3)GalNAc,-0.072
same,glycan array binding signal (z-score),[10],-0.066
same,glycan array binding signal (z-score),[11],-0.079
same,glycan array binding signal (z-score),Gal(b1-3)GalNAc(b1-3)Gal,-0.065
same,glycan array binding signal (z-score),[12],-0.03
same,glycan array binding signal (z-score),[13],-0.045
same,glycan array binding signal (z-score),[14],-0.063
same,glycan array binding signal (z-score),Gal(b1-3)GlcNAc,-0.068
same,glycan array binding signal (z-score),[15],-0.085
same,glycan array binding signal (z-score),[16],-0.086
same,glycan array binding signal (z-score),Gal(b1-3)GlcNAc(b1-2)Man,-0.078
same,glycan array binding signal (z-score),[17],-0.075
same,glycan array binding signal (z-score),[18],-0.068
